# Source: the supplement of paper PMC8728848
# The other results are listed elsewhere or left out.
# B1: Gal 4 (Homo sapiens), Q8K419 (protein)
# chain: MAYVPAPGYQPTYNPTLPYKRPIPGGLSVGMSVYIQGMAKENMRRFHVNFAVGQDDGADVAFHFNPRFDGWDKVVFNTMQSGQWGKEEKKKSMPFQKGKHFELVFMVMPEHYKVVVNGNSFYEYGHRLPVQMVTHLQVDGDLELQSINFLGGQPAAAPYPGAMTIPAYPAGSPGYNPPQMNTLPVMTGPPVFNPRVPYVGALQGGLTVRRTIIIKGYVLPTARNFVINFKVGSSGDIALHLNPRIGDSVVRNSFMNGSWGAEERKVAYNPFGPGQFFDLSIRCGMDRFKVFANGQHLFDFSHRFQAFQMVDTLEINGDITLSYVQI
# What was measured:
# Test in all cases: glycan array binding signal (z-score within array); higher = stronger binding
# Settings in all cases: glycan notation: IUPAC condensed, linker removed
# [1] = target: Gal(a1-3)Gal(b1-4)GlcNAc(b1-3)GalNAc
# In short: (§1)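 Columns mapping to the same glycan were averaged after glycan names were converted to IUPAC-condensed notation. The data come from 3228 arrays in the Consortium for Functional Glycomics database, limited to those with an available protein sequence. Binding is reported as a within-array Z-score averaged across arrays of one protein sequence and across linkers.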
# [2] = target: Gal(a1-3)Gal(b1-4)GlcNAc(b1-6)GalNAc
# In short: as §1
# [3] = target: Gal(a1-3)Gal(b1-4)[Fuc(a1-3)]GlcNAc
# In short: as §1
# [4] = target: Gal(a1-3)Gal(b1-4)[Fuc(a1-3)]GlcNAc(b1-2)Man(a1-3)[Gal(a1-3)Gal(b1-4)[Fuc(a1-3)]GlcNAc(b1-2)Man(a1-6)]Man(b1-4)GlcNAc(b1-4)GlcNAc
# In short: as §1
# Gal(a1-3)GalNAc = target: Gal(a1-3)GalNAc
# In short: as §1
# [5] = target: Gal(a1-3)[Gal(a1-4)]Gal(b1-4)GlcNAc
# In short: as §1
# [6] = target: Gal(a1-4)Gal(b1-3)GlcNAc(b1-2)Man(a1-3)[Gal(a1-4)Gal(b1-3)GlcNAc(b1-2)Man(a1-6)]Man(b1-4)GlcNAc(b1-4)GlcNAc
# In short: as §1
# Gal(a1-4)Gal(b1-4)Glc = target: Gal(a1-4)Gal(b1-4)Glc
# In short: as §1
# Gal(a1-4)Gal(b1-4)GlcNAc = target: Gal(a1-4)Gal(b1-4)GlcNAc
# In short: as §1
# [7] = target: Gal(a1-4)Gal(b1-4)GlcNAc(b1-2)Man(a1-3)[Gal(a1-4)Gal(b1-4)GlcNAc(b1-2)Man(a1-6)]Man(b1-4)GlcNAc(b1-4)GlcNAc
# In short: as §1
# [8] = target: Gal(a1-4)Gal(b1-4)GlcNAc(b1-3)Gal(b1-4)Glc
# In short: as §1
# Gal(a1-4)GlcNAc = target: Gal(a1-4)GlcNAc
# In short: as §1
# Gal(a1-6)Glc = target: Gal(a1-6)Glc
# In short: as §1
# Gal(b1-2)Gal = target: Gal(b1-2)Gal
# In short: as §1
# Gal(b1-3)Gal = target: Gal(b1-3)Gal
# In short: as §1
# Gal(b1-3)Gal(b1-4)GlcNAc = target: Gal(b1-3)Gal(b1-4)GlcNAc
# In short: as §1
# [9] = target: Gal(b1-3)Gal(b1-4)GlcNAc(b1-2)Man(a1-3)[Gal(b1-3)Gal(b1-4)GlcNAc(b1-2)Man(a1-6)]Man(b1-4)GlcNAc(b1-4)GlcNAc
# In short: as §1
# Gal(b1-3)GalNAc = target: Gal(b1-3)GalNAc
# In short: as §1
# [10] = target: Gal(b1-3)GalNAc(a1-3)[Fuc(a1-2)]Gal(b1-4)Glc
# In short: as §1
# [11] = target: Gal(b1-3)GalNAc(a1-3)[Fuc(a1-2)]Gal(b1-4)GlcNAc
# In short: as §1
# [12] = target: Gal(b1-3)GalNAc(b1-3)Gal(a1-4)Gal(b1-4)Glc
# In short: as §1
# [13] = target: Gal(b1-3)GalNAc(b1-4)Gal(b1-4)Glc
# In short: as §1
# [14] = target: Gal(b1-3)GalNAc(b1-4)[Neu5Ac(a2-3)]Gal(b1-4)Glc
# In short: as §1
# Gal(b1-3)GlcNAc = target: Gal(b1-3)GlcNAc
# In short: as §1
# [15] = target: Gal(b1-3)GlcNAc(a1-3)Gal(b1-4)GlcNAc
# In short: as §1
# [16] = target: Gal(b1-3)GlcNAc(a1-6)Gal(b1-4)GlcNAc
# In short: as §1
# [17] = target: Gal(b1-3)GlcNAc(b1-2)Man(a1-3)[Gal(b1-3)GlcNAc(b1-2)Man(a1-6)]Man(b1-4)GlcNAc(b1-4)GlcNAc
# In short: as §1
# [18] = target: Gal(b1-3)GlcNAc(b1-2)Man(a1-3)[Gal(b1-3)GlcNAc(b1-2)Man(a1-6)]Man(b1-4)GlcNAc(b1-4)[Fuc(a1-6)]GlcNAc
# In short: as §1
# [19] = target: Gal(b1-3)GlcNAc(b1-2)Man(a1-3)[GlcNAc(b1-4)][Gal(b1-3)GlcNAc(b1-2)Man(a1-6)]Man(b1-4)GlcNAc(b1-4)GlcNAc
# In short: as §1
# [20] = target: Gal(b1-3)GlcNAc(b1-2)[Gal(b1-3)GlcNAc(b1-6)]Man(a1-6)[Gal(b1-3)GlcNAc(b1-2)Man(a1-3)]Man(b1-4)GlcNAc(b1-4)GlcNAc
# In short: as §1
# [21] = target: Gal(b1-3)GlcNAc(b1-3)Gal(b1-3)GlcNAc
# In short: as §1
# [22] = target: Gal(b1-3)GlcNAc(b1-3)Gal(b1-4)Glc
# In short: as §1
# [23] = target: Gal(b1-3)GlcNAc(b1-3)Gal(b1-4)GlcNAc
# In short: as §1
# [24] = target: Gal(b1-3)GlcNAc(b1-3)Gal(b1-4)GlcNAc(b1-6)[Gal(b1-3)GlcNAc(b1-3)]Gal(b1-4)Glc
# In short: as §1
# [25] = target: Gal(b1-3)GlcNAc(b1-3)Gal(b1-4)[Fuc(a1-3)]GlcNAc(b1-6)[Gal(b1-3)GlcNAc(b1-3)]Gal(b1-4)Glc
# In short: as §1
# [26] = target: Gal(b1-3)GlcNAc(b1-3)GalNAc
# In short: as §1
# [27] = target: Gal(b1-3)GlcNAc(b1-6)Gal(b1-4)GlcNAc
# In short: as §1
# [28] = target: Gal(b1-3)GlcNAc(b1-6)GalNAc
# In short: as §1
binder,measurement,setting,value
B1,glycan array binding signal (z-score),[1],-0.166
same,glycan array binding signal (z-score),[2],-0.139
same,glycan array binding signal (z-score),[3],-0.201
same,glycan array binding signal (z-score),[4],-0.192
same,glycan array binding signal (z-score),Gal(a1-3)GalNAc,-0.196
same,glycan array binding signal (z-score),[5],-0.204
same,glycan array binding signal (z-score),[6],-0.201
same,glycan array binding signal (z-score),Gal(a1-4)Gal(b1-4)Glc,-0.194
same,glycan array binding signal (z-score),Gal(a1-4)Gal(b1-4)GlcNAc,-0.198
same,glycan array binding signal (z-score),[7],-0.194
same,glycan array binding signal (z-score),[8],0.525
same,glycan array binding signal (z-score),Gal(a1-4)GlcNAc,-0.202
same,glycan array binding signal (z-score),Gal(a1-6)Glc,-0.202
same,glycan array binding signal (z-score),Gal(b1-2)Gal,-0.201
same,glycan array binding signal (z-score),Gal(b1-3)Gal,0.459
same,glycan array binding signal (z-score),Gal(b1-3)Gal(b1-4)GlcNAc,0.41
same,glycan array binding signal (z-score),[9],-0.037
same,glycan array binding signal (z-score),Gal(b1-3)GalNAc,-0.028
same,glycan array binding signal (z-score),[10],13.2
same,glycan array binding signal (z-score),[11],2.3
same,glycan array binding signal (z-score),[12],-0.053
same,glycan array binding signal (z-score),[13],0.027
same,glycan array binding signal (z-score),[14],-0.032
same,glycan array binding signal (z-score),Gal(b1-3)GlcNAc,-0.094
same,glycan array binding signal (z-score),[15],0.021
same,glycan array binding signal (z-score),[16],-0.159
same,glycan array binding signal (z-score),[17],-0.133
same,glycan array binding signal (z-score),[18],-0.21
same,glycan array binding signal (z-score),[19],-0.159
same,glycan array binding signal (z-score),[20],-0.107
same,glycan array binding signal (z-score),[21],0.868
same,glycan array binding signal (z-score),[22],0.818
same,glycan array binding signal (z-score),[23],-0.016
same,glycan array binding signal (z-score),[24],-0.033
same,glycan array binding signal (z-score),[25],-0.017
same,glycan array binding signal (z-score),[26],-0.185
same,glycan array binding signal (z-score),[27],-0.093
same,glycan array binding signal (z-score),[28],-0.168
